In paper PMC12136788 one finds binding signal data, which are given here for 14 molecules.

Some of the results follow.

Sequences and labels used below:
T1: UNK ZnF1-3 (human, UniProt Q9C0B0 31-174)
T1 sequence: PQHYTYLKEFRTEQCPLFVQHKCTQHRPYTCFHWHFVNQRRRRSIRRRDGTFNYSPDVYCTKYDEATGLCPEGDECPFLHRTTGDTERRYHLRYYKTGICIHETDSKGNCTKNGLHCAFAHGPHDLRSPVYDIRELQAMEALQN

B1: 5094200_5094320_2150_3pUTR_ENSMUSG00000020393_ENSMUST00000020662|mouse|control|control (ssRNA)
RNA: GGGAGUUCUACAGUCCGACGAUCCUACAGCCCCAGCUCUAGGCUACAGCCCCAGCUCUAGGCUACAGCCCCAGCUCUAGGCUACAGGCUUGGGCUGAGGACAGGAAGACAGGCUGAAUUCUGAUUCCACAGGAUUGGCAACUACAACAGAGGAUUGAGCAUCA
B2: chr2:55462594:55462595:+_ENSG00000143947_ENST00000402285|hu_mus|motif|central (ssRNA)
RNA: GGGAGUUCUACAGUCCGACGAUCUCCCAUGAAAACUCCAGCACCACAUUCAUCAGAAGGACACUCUCGACGAAGUCGGCGGAUUUUGCCAUUUUCAUCCACCUUAUAGUAUUUCAGCACAGCCAACUUAACCUUCUUCCUCUUCAACAGAGGAUUGAGCAUCA
B3: 54996473_54998144_359_CDS_ENSMUSG00000029777_ENSMUST00000003572|mouse|control|control (ssRNA)
RNA: GGGAGUUCUACAGUCCGACGAUCCUGAUCGUAGAAAAACCUCCUCUUCAACGUAUCUUCCAUUUUUGCUCUAUCUACGAUGUCAUCUUUGGGCUGCAAUGCCAGCUCCUUUGCUUCCAGAACCCUCUUCCGGGCCUUGAGCUCCAACAGAGGAUUGAGCAUCA
B4: chr1:2330915:2330916:+_ENSG00000157916_ENST00000443438|hu_hu|FALSE|FALSE (ssRNA)
RNA: GGGAGUUCUACAGUCCGACGAUCAGGACCGUCAUCUGAGUCUUCCAUUAAGGAAGGAUCCACUUUGGGAGAAAGAAAAGCUAUGAAAAGAUUUAGAUGGUAGAUCCCCAAGGCAUAGGUCACAAUGUACCAACCCUGCAGCAGCAACAGAGGAUUGAGCAUCA
B5: chr1:66462064:66462065:+_ENSMUSG00000015222_ENSMUST00000114013|mus_hu|FALSE|FALSE (ssRNA)
RNA: GGGAGUUCUACAGUCCGACGAUCGACAUCAGCUCUCUCAUCUGUGGCUAAAUCAGCCUCUGAAACAGCAGGUGGGCAAGGUAUUUCCACUGACAAUUUGACGGCAAUCUCAUCUUGAAUUAGAGAUGAUUCUGGAGAUGUUUCCAACAGAGGAUUGAGCAUCA
B6: chr3:139078181:139078182:-_ENSG00000184432_ENST00000507777|hu_hu|FALSE|FALSE (ssRNA)
RNA: GGGAGUUCUACAGUCCGACGAUCCUGACUGGGUAAGUAAGUUCGGGCCAAGAAGGCAGCUUCUGGCAGCCGUCCAGUUCUAAUUAAGAGCUCUAGGCAGGCAUCAACCUUGCCCUGUAAAAAGUAGCUCAUGAAUGCCACAUUCAACAGAGGAUUGAGCAUCA
B7: chr10:28884852:28884853:+_ENSG00000095787_ENST00000354911|hu_hu|motif|central (ssRNA)
RNA: GGGAGUUCUACAGUCCGACGAUCAGAUGCUCCAUUAGCAUCAAAUGAUUUCUUUGGCUGGUGAUCAGACUGUAGCGUAAAUGGACGGGAAGGAACAGUGCUUGGGGUAGCAGUUGGAUGAACCACUGGUUUGAUGGGGUGCUGCAACAGAGGAUUGAGCAUCA
B8: chr3:105756983:105756984:-_ENSMUSG00000000563_ENSMUST00000118209|mus_hu|FALSE|FALSE (ssRNA)
RNA: GGGAGUUCUACAGUCCGACGAUCAGCAAAGUCUGCAACAAAGGGACCAUAUUUUUUAAUUCCAUAGACCAUUACACCUAGUACUGAUAGGGCAGUGAAGGUCUCUGCGCUAAUCACAUAUAUUUCUUUGGAUAAAGCGUACAACAACAGAGGAUUGAGCAUCA
B9: chr7:56127271:56127272:+_ENSG00000146731_ENST00000540286|hu_hu|FALSE|FALSE (ssRNA)
RNA: GGGAGUUCUACAGUCCGACGAUCAUACUCAUAUACAAGUCCUGCAUGUCCCAAGCAGUCAGGACUUAGGUCGUCAAAAGAAUUCAGGGCUACCCCACCACAAGCAAGAGUCAGCCUCUCCAUAUUUCUCCUUUUAGCUCUGCGCAACAGAGGAUUGAGCAUCA
B10: chr8:74746221:74746222:+_ENSMUSG00000003039_ENSMUST00000003123|mus_mus|FALSE|FALSE (ssRNA)
RNA: GGGAGUUCUACAGUCCGACGAUCUUUAAUCAAGUCUCAGAAAACCUGGUCUCAGCAGAUUCACCAGCCAGGUGUAAAACAUUCUAGAAAACACGGAGGGACAAGACAAAACACUGUCAACCUGGCCUUCUGCCUUUUUGCACCCAACAGAGGAUUGAGCAUCA
B11: chr1:186330979:186330980:-_ENSG00000047410_ENST00000367478|hu_mus|FALSE|FALSE (ssRNA)
RNA: GGGAGUUCUACAGUCCGACGAUCGUAGAGAUUAGAGAGCUUUAUGUGAGCAUUUAACUCAUUGUGGAAUUUCUCUUCCAUACUGGCCUGCUGUUCUUUGGCCUCUUUUAAUUUUGUCAACAAAUCCUCUACAUGUUUCUGAAGCAACAGAGGAUUGAGCAUCA
B12: 62644853_62644973_1213_CDS_ENSMUSG00000032244_ENSMUST00000034775|mouse|control|control (ssRNA)
RNA: GGGAGUUCUACAGUCCGACGAUCGUUCCUACACUCAGUUCUGUUCCCAUAAGCAUGGAUGGGUGGGAGAACCUCUUUUUCAAGAAUGUUGUCACCAUCCUGAAAUCUCUCCAACAUAGCUAAAUAUAAAUAGUGGUAUGUCUUCAACAGAGGAUUGAGCAUCA
B13: chr16:33771563:33771564:+_ENSMUSG00000075254_ENSMUST00000152782|mus_mus|motif|central (ssRNA)
RNA: GGGAGUUCUACAGUCCGACGAUCAGACUUAGAGUGGAUAUAAGUAUAAAAAAUAACCAAAUUCUUACAAAUAACACAUUGCGGCGGCAGUACUGAAUAAUUAUUGGAGGUGACAUUAUAAUACAACUUUAAAUAACAUUCUCACAACAGAGGAUUGAGCAUCA
B14: chr4:25749455:25749456:-_ENSG00000091490_ENST00000264868|hu_hu|hu_hu_hu_mus_False|1_68 (ssRNA)
RNA: GGGAGUUCUACAGUCCGACGAUCGCACUAUGACCUCUAGAAAAAUCCACAGGGGGAAAAAAUGUAAACCAAUUUACAAUGUUAUCGCCUUCCCUGUGUGUGGAGUGUUUGUCUCAAGGCUCCUUCUAGCUGCUGGACUGCUAGCAACAGAGGAUUGAGCAUCA

The test has as its target T1, UNK ZnF1-3. Nature of the test: nsRBNS (natural sequence RNA bind-n-seq); RBNS binding buffer (assumed for nsRBNS): 25 mM Tris pH 7.5, 150 mM KCl, 3 mM MgCl2, 0.01% Triton X-100, 500 ug/ml BSA, 20 U/ml SUPERase-In, 4 C; UNK is unkempt and MSI1 is Musashi-1; names of the RNAs are library labels; protein concentration not given here; high values mean tight binding.
Consider B1, for which the binding signal came out at 0.734 enrichment R.

Molecule B2 showed a binding signal of 1.18 enrichment R.

B3 came in with a binding signal of 0.527 enrichment R.

Consider B4, for which the binding signal amounted to 1.25 enrichment R.

Molecule B5 gave a binding signal of 0.88 enrichment R.

In the case of B6, the binding signal was found to be 1.02 enrichment R.

Molecule B7 displayed a binding signal of 1.2 enrichment R.

The molecule B8 displayed a binding signal of 1.85 enrichment R.

The molecule B9 had a binding signal of 0.999 enrichment R.

On to B10, for which the binding signal came out at 1.17 enrichment R.

The molecule B11 registered a binding signal of 0.594 enrichment R.

As to B12, the binding signal amounted to 0.764 enrichment R.

The molecule B13 had a binding signal of 2.22 enrichment R.

Take B14: the binding signal stood at 0.84 enrichment R.
